Experimental data from PubChem BioAssay AID485364 (National Center for Advancing Translational Sciences (NCATS), 2010).
Out of some 360,000 compounds screened, about 11,000 (3.1%) were called active. The inconclusive results got no clear call from the source; some entries with a clear call stand among them for comparison. Calls follow the shape of the dose curve; as a rule, active = well fitted inhibition curve with a large enough effect; inconclusive = small, poorly fitted or top-dose-only effect; inactive = no such curve, though single readings can be large or run the other way. Potencies of inconclusive entries are left out as doubtful fits.

These compounds were tested against Schistosoma mansoni thioredoxin glutathione reductase (TGR) (UniProt Q962Y6) (assay: qHTS Assay for the Inhibitors of Schistosoma Mansoni Peroxiredoxins). Conditions: purified TGR, DTNB reduction, TNB absorbance 405 nm; series mostly up to 114 µM.
Method in brief: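 TGR 20 nM + NADPH 100 uM (dispensed conc.), cpd preinc 15 min RT; start with NADPH (500 uM addition) then DTNB (15 mM addition). Kinetic TNB absorbance, 405 nm filter. Four-parameter Hill fit across titration.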
Also: nearly all actives have a fitted effect of over 60% in size.
Potency is read from the fitted curve at half-maximal effect; tags tell the direction and shape of the fitted curve.

With `O=C(c1ccco1)N1CCN(C(c2ccc(F)cc2)c2nnnn2Cc2cccs2)CC1` (stereo not given) as the compound, how does the Potency read?
Its Potency is inconclusive [inhibitor, partial curve].

How did the Potency turn out when `N#Cc1nc(Cc2cccc3ccccc23)oc1NCCCn1ccnc1` was run?
The Potency was inconclusive [inhibitor, partial curve].

Which Potency does the source give for `CC(C)(C)OC(=O)N1CCC[C@H]1c1nnc(SC/C=C/c2ccccc2)o1` here?
Its Potency is inconclusive [inhibitor, partial curve].

For `CCOC(=O)c1nn(-c2ccc(Cl)cc2Cl)c(=N)c(C#N)c1C`, which Potency is on record?
The Potency was inconclusive [inhibitor, partial curve].

For `O=C1c2c(O)cc(O)cc2O[C@@]12c1c(cc(O)c3c1O[C@H](c1ccc(O)cc1)[C@@H](O)C3)O[C@@H]2c1ccc(O)cc1`, which Potency is on record?
The Potency was inconclusive [inhibitor, partial curve].

With `COc1cccc(-c2cccc(NC(=O)C3CCN(Cc4ccc(CO)o4)CC3)c2)c1` as the compound, how does the Potency read?
Its Potency is inconclusive [inhibitor, single point].

Which Potency does the source give for `CC(=O)Nc1ccc(S(=O)(=O)NCC(=O)OCC(=O)NCc2ccco2)cc1` here?
The Potency was inconclusive [inhibitor, partial curve].

How did the Potency turn out when `CCc1cc(C(=O)N2CCCC(Nc3ccc(F)c(F)c3)C2)n(C)n1` (stereo not given) was run?
Its Potency is inconclusive [inhibitor, full curve, poor fit].

Which Potency does the source give for `Cc1cc2nc(-c3ccc(SCC(=O)N4CCc5ccccc54)nc3)[nH]c2cc1C` here?
Its Potency is “inactive”.

For `Cc1ccc(N2C(=O)NC(=O)/C(=C\c3cc(C)n(-c4cc(C(=O)O)cc(C(=O)O)c4)c3C)C2=O)cc1`, which Potency is on record?
Its Potency is active: 7.94 µM.

`COc1ccc(C(=O)[C@H]2[C@H]3C(=O)N(c4ccc(OC(C)=O)cc4)C(=O)[C@H]3C3C=CC=NN32)cc1` (stereo not given in full) was tested. Which Potency did it give?
Its Potency is inconclusive [inhibitor, partial curve].

How did the Potency turn out when `CCN(CC)c1ccc(N=Cc2c(C)[nH]c3ccccc23)cc1` was run?
Its Potency is “inactive”.

With `COC(=O)C(CCCCN1C(=O)C2C3C=CC(C3)C2C1=O)N1C(=O)C2C3C=CC(C3)C2C1=O` (stereo not given) as the compound, how does the Potency read?
The Potency was inconclusive [inhibitor, single point].

With `CC(=O)Oc1cccc(/C=c2\sc3nc(-c4ccco4)nn3c2=O)c1` as the compound, how does the Potency read?
Its Potency is inconclusive [inhibitor, partial curve].

For `Cc1nnc(CN(C)C(=O)CC2C(=O)NCCN2Cc2ccccc2C)o1` (stereo not given), which Potency is on record?
Its Potency is active: 28.2 µM.

With `COc1ccccc1S(=O)(=O)Cc1ccc(C(=O)N2CCN(c3ccccn3)CC2)o1` as the compound, how does the Potency read?
Its Potency is active: 28.2 µM.

With `Cc1nc2ccccc2c(=O)n1C1CCCCCC1` as the compound, how does the Potency read?
The Potency was “inactive”.

Which Potency does the source give for `COc1ccccc1-c1coc2c(CN3CCOCC3)c(O)ccc2c1=O` here?
Its Potency is inconclusive [inhibitor, partial curve].

Which Potency does the source give for `Cc1nn(-c2ccc(N3CCOCC3)nn2)c(C)c1CCC(=O)Nc1ccccc1` here?
The Potency was inconclusive [inhibitor, full curve, poor fit].

How did the Potency turn out when `Brc1ccc(-c2nn3c(-c4ccccn4)nnc3s2)o1` was run?
Its Potency is inconclusive [inhibitor, partial curve].

For `C=C1[C@@H](OC(C)=O)CC[C@]2(C)[C@@H]1C[C@@H]1C[C@H](OC(C)=O)C(C)=C([C@@H](OC(C)=O)[C@@H]2OC(C)=O)C1(C)C`, which Potency is on record?
The Potency was “inactive”.

With `ClCc1nc2ccccc2c2ccccc12` as the compound, how does the Potency read?
The Potency was inconclusive [inhibitor, full curve].

How did the Potency turn out when `COc1cc2c(cc1OC)CN(C1CCCN(Cc3cc(Cl)ccc3O)C1)CC2` (stereo not given) was run?
The Potency was inconclusive [inhibitor, partial curve].

How did the Potency turn out when `CCOC(=O)c1c(N/N=C/c2ccncc2)n[nH]c1C` was run?
Its Potency is “inactive”.

For `CCN(CC)S(=O)(=O)c1cccc(NC(=O)c2cc(=O)[nH]c3ccccc23)c1`, which Potency is on record?
The Potency was “inactive”.

How did the Potency turn out when `COc1cc2cc(C(c3nnnn3C(C)(C)C)N3CCC(C)CC3)c(=O)[nH]c2cc1OC` (stereo not given) was run?
The Potency was inconclusive [inhibitor, single point].

With `COc1ccc(CC(=O)OCC(=O)Nc2ncc(Cl)c(C)c2Cl)cc1` as the compound, how does the Potency read?
The Potency was inconclusive [inhibitor, partial curve].

How did the Potency turn out when `Cc1cc2c(c(=O)o1)C1O[C@](c3ccsc3)(Cc3ccccc31)O2` was run?
Its Potency is inconclusive [inhibitor, partial curve].

`COc1ccc(C2=NN(C(=O)CCC(=O)O)C(c3ccc(OC)c(OC)c3)C2)cc1` (stereo not given) was tested. Which Potency did it give?
Its Potency is active: 22.4 µM.

For `COc1cc(CNc2cccc3[nH]c(C(F)(F)F)nc23)cc(OC)c1`, which Potency is on record?
Its Potency is active: 22.4 µM.

With `O=C(Nc1nnc(S(=O)(=O)N2CCN(c3ccc(F)cc3)CC2)s1)c1ccco1` as the compound, how does the Potency read?
The Potency was inconclusive [inhibitor, partial curve].

With `Cc1c(Cc2ccccc2)sc(/N=C/c2ccc3ccccc3c2)c1C(N)=O` as the compound, how does the Potency read?
The Potency was inconclusive [inhibitor, partial curve].

For `CCOC(=O)c1ccc2ncc(C(=O)OCC)c(NCCCN3CCOCC3)c2c1`, which Potency is on record?
Its Potency is inconclusive [inhibitor, partial curve].

Which Potency does the source give for `COc1ccc(CNC(=O)CCN2C(=O)[C@@H]3Cc4ccccc4CN3C2=O)cc1` here?
Its Potency is “inactive”.

With `CCOC(=O)CSc1nc(-c2ccccc2)ns1` as the compound, how does the Potency read?
Its Potency is inconclusive [inhibitor, partial curve].

Which Potency does the source give for `O=C(CCN1C(=O)C2C3CCC(C3)C2C1=O)Nc1ccc(F)cc1` (stereo not given) here?
Its Potency is “inactive”.

For `COc1cccc(CN2CCNC(=O)C2CC(=O)NCCN2CCOCC2)c1OC` (stereo not given), which Potency is on record?
The Potency was “inactive”.

Which Potency does the source give for `O=C(CCl)NN=C(c1ccccc1)c1ccccc1` here?
Its Potency is active: 11.2 µM.

For `CCOc1cc(/C=N\NC(=O)c2c(C)nc3ccccn23)ccc1O`, which Potency is on record?
The Potency was “inactive”.

For `CCCCNC(=O)NS(=O)(=O)c1ccc(NC(=O)CCC(=O)c2cccs2)cc1`, which Potency is on record?
The Potency was inconclusive [inhibitor, partial curve].

With `COc1ccc(C(=O)CSc2nnc(C(CO)NC(=O)c3ccc(OC)cc3)n2C)cc1` (stereo not given) as the compound, how does the Potency read?
Its Potency is inconclusive [inhibitor, full curve, poor fit].

With `Cc1cc(Oc2ccc(N)cn2)ccc1Cl` as the compound, how does the Potency read?
The Potency was inconclusive [inhibitor, partial curve].

`COC(=O)CCC(=O)OC1(C)C(=O)C2=CN(C3CCCC3)C(c3ccc(OC)cc3)=CC2=C(Br)C1=O` (stereo not given) was tested. Which Potency did it give?
Its Potency is inconclusive [inhibitor, partial curve].

How did the Potency turn out when `NC(=O)c1ccc(N=Nc2c(O)[nH]c(=O)[nH]c2=O)cc1` was run?
Its Potency is “inactive”.

Which Potency does the source give for `CC(C)=NOCC(=O)Nn1c(COc2ccccc2)nc2ccccc2c1=O` here?
Its Potency is inconclusive [inhibitor, full curve].

How did the Potency turn out when `CCOc1ccc(CN2CCNC(=O)C2CC(=O)NCCc2cnccn2)cc1` (stereo not given) was run?
Its Potency is inconclusive [inhibitor, partial curve].

Which Potency does the source give for `CC(C)CCn1c(=O)c2ccccc2n2c(CCl)nnc12` here?
The Potency was active: 3.16 µM.

With `Cc1ccc(C)c(N2CCN(C(c3ccncc3)c3nnnn3Cc3ccccc3)CC2)c1` (stereo not given) as the compound, how does the Potency read?
Its Potency is inconclusive [inhibitor, partial curve].

With `O=C(CSc1ccnc(=O)[nH]1)NCc1ccc(F)cc1` as the compound, how does the Potency read?
Its Potency is inconclusive [inhibitor, single point].

With `CN1CCN(C2=CC3=CC(=C(C#N)C#N)CCC3CC2)CC1` (stereo not given) as the compound, how does the Potency read?
The Potency was inconclusive [inhibitor, partial curve, poor fit].

How did the Potency turn out when `Cc1cccc[n+]1CC(=O)Nc1ccccc1` was run?
Its Potency is “inactive”.

For `O=C(NCCCN1CCOCC1)c1cc(-c2ccc(O)cc2)on1`, which Potency is on record?
Its Potency is “inactive”.

Which Potency does the source give for `CC(C)(C)c1ccc(OCCC(=O)OCC(=O)NC(=O)NC2CCCC2)cc1` here?
Its Potency is inconclusive [inhibitor, partial curve].

Which Potency does the source give for `COC(=O)c1c(NC(=O)CCl)sc(C(=O)N2CCOCC2)c1C` here?
Its Potency is active: 31.6 µM.

For `Cc1ccc(S(=O)(=O)Nn2c(O)c(C=C3N=c4ccccc4=N3)sc2=S)cc1`, which Potency is on record?
Its Potency is active: 12.6 µM.

With `CCCC1c2ccc(C)n2CCN1C(=O)Nc1ccccc1Cl` (stereo not given) as the compound, how does the Potency read?
The Potency was active: 35.5 µM.

With `COc1cc(NC(=O)NCCc2c(C)nn(C)c2C)cc(OC)c1OC` as the compound, how does the Potency read?
The Potency was “inactive”.

With `CC1=NN(Cc2ccccc2)C(=O)C1C(c1ccc(Cl)cc1)C(C#N)C#N` (stereo not given) as the compound, how does the Potency read?
Its Potency is active: 14.1 µM.

How did the Potency turn out when `O=C1Nc2ccc(Br)cc2/C1=N/N=C/C1=C(N2CCOCC2)C(=C\c2ccccc2)/CC1` was run?
The Potency was inconclusive [inhibitor, full curve].

`CC1(C)C2([N+](=O)[O-])CN3CC1([N+](=O)[O-])CN(C2)C3c1ccc(O)c(O)c1` (stereo not given) was tested. Which Potency did it give?
Its Potency is inconclusive [inhibitor, full curve].

`Cc1ccc(C2C(C(=O)c3cccs3)=C(O)C(=O)N2c2ccc(S(N)(=O)=O)cc2)cc1` (stereo not given) was tested. Which Potency did it give?
Its Potency is “inactive”.

`Clc1ccc(C2Nc3cccc4cccc(c34)N2)cc1Cl` was tested. Which Potency did it give?
The Potency was active: 14.1 µM.

`CC(=O)Nc1ccc(-c2csc(Nc3cc(C)ccn3)n2)cc1` was tested. Which Potency did it give?
Its Potency is “inactive”.

With `O=C(Nc1ccccc1C(=O)NCCN1CCOCC1)c1ccco1` as the compound, how does the Potency read?
The Potency was inconclusive [inhibitor, partial curve].

Which Potency does the source give for `C=CCNC1=C(Cl)C(=O)c2ccccc2C1=O` here?
The Potency was active: 44.7 µM.

For `COc1ccc(C2OC3=C(Nc4cc(C)c(C)cc4N3)C2=O)cc1` (stereo not given), which Potency is on record?
Its Potency is “inactive”.

For `CCOC(=O)C(O)(CC(=O)c1ccc(Cl)cc1)C(=O)OCC`, which Potency is on record?
The Potency was inconclusive [inhibitor, partial curve].

With `COc1ccc(NC(=O)C2CCC(C)(C(=O)O)C2(C)C)cc1` (stereo not given) as the compound, how does the Potency read?
The Potency was inconclusive [inhibitor, full curve, poor fit].

For `Cc1cccc(-n2ccnc2CN2CCN(C3CCCC3)C(CCO)C2)c1` (stereo not given), which Potency is on record?
The Potency was inconclusive [inhibitor, full curve].

With `Cn1c2ccccc2c(=O)c2cc(C#Cc3ccccn3)ccc21` as the compound, how does the Potency read?
Its Potency is active: 20 µM.
